The supplement of paper PMC9446081
Out of some 39,000 compounds screened, about 220 (0.56%) showed activity. This is one part of the list.
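Also: static incubation at 37 °C against the wild-type strain, values averaged over two biological replicates.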

What follows are compounds tested on Escherichia coli K-12 BW25113 (assay: relative growth (OD600 normalised to plate interquartile mean) (fraction); higher = less growth inhibition, active = 0.2 or less). Details: 50 µM; LB; incubation time: overnight (16-24 h).
In the case of `C[C@@H]1CN([C@H](C)CO)C(=O)c2cc(NC(=O)CCN3CCOCC3)ccc2O[C@H]1CN(C)C(=O)Nc1ccc2c(c1)OCO2`, the relative growth is reported as inactive: 0.988. `C[C@H](CO)N1C[C@H](C)[C@@H](CN(C)S(=O)(=O)c2cn(C)cn2)OCCCC[C@H](C)Oc2ccc(NS(=O)(=O)c3ccc(F)cc3)cc2C1=O` was tested, and the relative growth was inactive: 1.02. `C[C@@H]1CCCCO[C@@H](CN(C)C(=O)C2CCCCC2)[C@@H](C)CN([C@@H](C)CO)C(=O)c2cc(NS(=O)(=O)c3ccc(Cl)cc3)ccc2O1` was tested, and the relative growth was inactive: 0.986. With `CC(C)NC(=N)NC(=N)Nc1ccc(Cl)cc1.Cl` the relative growth was inactive: 0.965. With `O=C(C[C@@H]1C=C[C@@H](NC(=O)c2cccnc2)[C@@H](CO)O1)NCc1ccncn1` the relative growth was inactive: 0.965. With `Cc1noc(C)c1NC(=O)Nc1ccc2c(c1)C(=O)N([C@@H](C)CO)C[C@H](C)[C@@H](CN(C)Cc1ccc(C(=O)Nc3ccccc3N)cc1)O2` the relative growth was inactive: 1.01. In the case of `CCNC(=O)C[C@H]1CC[C@H]2[C@H](COc3ccc(NS(=O)(=O)c4ccccc4C)cc3C(=O)N2C)O1`, the relative growth is reported as inactive: 1. For `Cc1noc(C)c1S(=O)(=O)N(C)C[C@@H]1OCCCC[C@@H](C)Oc2ccc(NC(=O)Nc3ccccc3)cc2C(=O)N([C@@H](C)CO)C[C@H]1C`, the relative growth was inactive: 1.02. With `C[C@H]1CCCCO[C@H](CN(C)S(C)(=O)=O)[C@@H](C)CN([C@@H](C)CO)C(=O)c2cc(NS(C)(=O)=O)ccc2O1` the relative growth was inactive: 0.971. For `COc1cc2c(cc1OC)CN(C(=O)[C@@H]1[C@H]3C(=O)O[C@H](c4ccccc4)[C@H](c4ccccc4)N3[C@H](c3ccc(O)cc3)[C@@]13C(=O)Nc1ccc(C#CCCO)cc13)CC2`, the relative growth was inactive: 1.05. In the case of `C[C@@H]1CN([C@H](C)CO)S(=O)(=O)c2ccc(-c3cncnc3)cc2O[C@H]1CN(C)C(=O)Cc1ccccc1`, the relative growth is reported as inactive: 0.978. `C[C@H]1CCCCO[C@@H](CN(C)C(=O)NC2CCCCC2)[C@@H](C)CN([C@@H](C)CO)C(=O)c2cc(NC(=O)Cc3ccccc3)ccc2O1` was tested, and the relative growth was inactive: 0.997. With `COCC#Cc1ccc2c(c1)O[C@@H](CN(C)S(=O)(=O)c1cccc(OC)c1)[C@H](C)CN([C@@H](C)CO)S2(=O)=O` the relative growth was inactive: 1.03. `CCCN1CCC2(CC1)NC(=O)N(CC(=O)N1CCN(C(=O)OCC)CC1)C2=O` was tested, and the relative growth was inactive: 0.992. For `COc1ccc(NC(=O)Nc2ccc3c(c2)C(=O)N([C@H](C)CO)C[C@@H](C)[C@@H](CN(C)Cc2ccc(C(F)(F)F)cc2)OCCCC[C@@H](C)O3)cc1`, the relative growth was inactive: 1.02. In the case of `O=C(N[C@H](c1ccc(Cl)cc1)c1ccsc1)C1CCN(Cc2ccc(Oc3ccccc3)cc2)CC1`, the relative growth is reported as inactive: 1.02. In the case of `C[C@@H](O)CNC(=O)C(=O)NC(C)(C)C`, the relative growth is reported as inactive: 1.01. In the case of `CC(=O)N1CCN(CC(N)=S)CC1`, the relative growth is reported as inactive: 1.02. In the case of `NC/C=C/C(=O)O`, the relative growth is reported as inactive: 1. With `C[C@@H]1CCCCO[C@H](CN(C)Cc2ccc(Cl)c(Cl)c2)[C@@H](C)CN([C@H](C)CO)C(=O)c2cc(NC(=O)Nc3ccc(F)cc3)ccc2O1` the relative growth was inactive: 1.03. For `C[C@H](CO)N1C[C@H](C)[C@@H](CN(C)CC2CCCCC2)Oc2c(NC(=O)Cn3cnnn3)cccc2C1=O`, the relative growth was inactive: 1. With `C[C@@H]1CN([C@H](C)CO)C(=O)Cc2cc(NS(=O)(=O)c3cn(C)cn3)ccc2O[C@@H]1CN(C)S(C)(=O)=O` the relative growth was inactive: 1.02. `C[C@@H]1CN([C@@H](C)CO)C(=O)c2cc(NC(=O)Nc3ccc(F)cc3)ccc2O[C@@H](C)CCCCO[C@@H]1CN(C)Cc1ccc(C(F)(F)F)cc1` was tested, and the relative growth was inactive: 1.04. For `CCCCN(CCCC)[NH2+][O-]`, the relative growth was inactive: 0.997. For `NCC[C@H]1CC[C@H](NC(=O)Nc2ccc(F)cc2)[C@@H](CO)O1`, the relative growth was inactive: 1. In the case of `CC(C)NC(=O)Nc1ccc2c(c1)C(=O)N([C@@H](C)CO)C[C@@H](C)[C@H](CN(C)Cc1ccc(C(F)(F)F)cc1)OCCCC[C@H](C)O2`, the relative growth is reported as inactive: 1.03. `C[C@@H]1CN([C@@H](C)CO)C(=O)CCCn2nncc2CO[C@@H]1CN(C)C(=O)CCCN(C)C` was tested, and the relative growth was inactive: 0.989. In the case of `CN(C)CCCNC(=O)C[C@H]1CC[C@H]2[C@@H](COC[C@@H](O)CN2C(=O)c2cc(Cl)cc(Cl)c2)O1`, the relative growth is reported as inactive: 0.968. With `O=C(O)CCNC(=O)c1ccccc1` the relative growth was inactive: 1.03. For `O=C(CS)NCCCCCCNC(=O)[C@@H]1C[C@@H]2C(=O)NCC(=O)N2[C@@H]1c1ccc(O)cc1`, the relative growth was inactive: 1. For `C[C@H](CO)N1C[C@H](C)[C@H](CN(C)Cc2ccc(C(=O)O)cc2)Oc2ccc(NC(=O)C3CC3)cc2CC1=O`, the relative growth was inactive: 0.991. With `C[C@@H]1CN([C@H](C)CO)C(=O)c2cc(NC(=O)CCCCCC(=O)Nc3ccccc3N)ccc2O[C@@H]1CN(C)S(C)(=O)=O` the relative growth was inactive: 1.01. `COCC#Cc1ccc2c(c1)O[C@@H](CN(C)S(C)(=O)=O)[C@@H](C)CN([C@H](C)CO)S2(=O)=O` was tested, and the relative growth was inactive: 1. In the case of `C[C@H](CO)N1C[C@H](C)[C@H](CN(C)C(=O)Nc2cccc3ccccc23)Oc2ccc(NS(=O)(=O)c3cccs3)cc2CC1=O`, the relative growth is reported as inactive: 0.995. For `CCCC(=O)Nc1ccc(-c2nc3cc(C(C)C)ccc3o2)cc1`, the relative growth was inactive: 1.05. With `COc1ccc2c3c(n(c2c1)C)[C@H](CO)N(C[C@]13CCN(CC1)Cc1ccccc1F)C(=O)Nc1ccc(cc1)F` the relative growth was inactive: 0.999. `CC(C)NC(=O)N(C)C[C@@H]1Oc2ccc(NC(=O)NC3CCCCC3)cc2CC(=O)N([C@@H](C)CO)C[C@@H]1C` was tested, and the relative growth was inactive: 0.956. `CN1CCN(C(=O)C[C@H]2C=C[C@@H](NC(=O)Cc3ccccn3)[C@H](CO)O2)CC1` was tested, and the relative growth was inactive: 1.01. For `COc1ccccc1CN1C(=O)c2ccccc2[C@](Cc2ccccc2I)(C(=O)NCCN2CCOCC2)[C@@H]1c1ccc(CO)cc1`, the relative growth was inactive: 0.982. `C[C@@H]1CN([C@H](C)CO)C(=O)c2cc(NC(=O)c3ccccc3)ccc2O[C@@H](C)CCCCO[C@H]1CN(C)S(=O)(=O)c1ccc(Cl)cc1` was tested, and the relative growth was inactive: 1.04.
